Laboratory results: the supplement of paper PMC8512760
Structures can show the parent of a compound that is named as a salt. The list shows a part of the results. Repeats are few or missing, and single values can be far off.

System: HCC-1187
Test: cell viability relative to vehicle (% of vehicle); basal-like triple-negative breast cancer lines; higher = less cytotoxic
Conditions: 10 µM; 72 h
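Also: stably firefly luciferase-GFP labeled cells in 96-well plates, viability read as luciferase photon flux after d-luciferin addition, treated wells normalized to vehicle wells, single-dose high-throughput screen.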

SMILES | cell viability
O=CC(O)C(O)C(O)CO (stereo not given) [Xylose] | 109
O=C(NS(=O)(=O)c1ccc(Br)s1)c1ccc(Cl)cc1Cl [Tasisulam] | 81.2
Cn1nnc2c(C(N)=O)ncn2c1=O [Temozolomide] | 83.5
CC(C(=O)O)c1ccc2c(c1)Cc1cccnc1O2 (stereo not given) [Pranoprofen] | 106
N.N.[Cl][Pt+2][Cl] [Cisplatin] | 121
COc1ccccc1N1CCN(CCCNc2cc(=O)n(C)c(=O)n2C)CC1.Cl [Urapidil HCl] | 98.9
Nc1ncnc2c1ncn2C1OC(CO)C(O)C1O (stereo not given) [Vidarabine] | 108
CCOC(=O)C(CCc1ccccc1)NC(C)C(=O)N1CCCC1C(=O)O.O=C(O)C=CC(=O)O (stereo not given) [Enalapril Maleate] | 103
CNC1CCC(c2ccc(Cl)c(Cl)c2)c2ccccc21.Cl (stereo not given) [Sertraline HCl] | 65.6
CC(Cn1cnc2c(N)ncnc21)OCP(=O)(O)O (stereo not given) [Tenofovir] | 124
CS(=O)(=O)CCNCc1ccc(-c2ccc3ncnc(Nc4ccc(OCc5cccc(F)c5)c(Cl)c4)c3c2)o1.Cc1ccc(S(=O)(=O)O)cc1.Cc1ccc(S(=O)(=O)O)cc1 [Lapatinib Ditosylate] | 73.4
CC(C)CC(NC(=O)C(NC(=O)c1cccc(-c2ccccc2)n1)C(C)O)B(O)O (stereo not given) | 13
CN(C)CCC=C1c2ccccc2Sc2ccc(Cl)cc21 [Chlorprothixene] | 111
Nc1ccn(C2CSC(CO)O2)c(=O)n1 (stereo not given) [Lamivudine] | 91.6
CCCCCCCCOc1ccccc1C(=O)Nc1ccc(C(=O)OCC[N+](C)(CC)CC)cc1.[Br-] [Otilonium Bromide] | 73
CCC(=O)NCCC1CCc2ccc3c(c21)CCO3 (stereo not given) [Ramelteon] | 89.1
O=C(C=Cc1ccc(O)c(O)c1)OC1CC(O)(C(=O)O)CC(O)C1O (stereo not given) [Chlorogenic acid] | 78.3
Cc1ccsc1C(=CCCN1CCC[C@@H](C(=O)O)C1)c1sccc1C [Tiagabine hydrochloride] | 71.2

SMILES | cell viability
CCOC(=O)CCC(=O)OC1C(OC2C(C)C(OC3CC(C)(OC)C(O)C(C)O3)C(C)C(=O)OC(CC)C(C)(O)C(O)C(C)C(=O)C(C)CC2(C)O)OC(C)CC1N(C)C (stereo not given) [Erythromycin Ethylsuccinate] | 86.7
CCCCNc1ccc(C(=O)OCCN(C)C)cc1.Cl [Tetracaine HCl] | 77.9
CCOC(=O)n1ccn(C)c1=S [Carbimazole] | 77
CCN(CC)C(=O)C1(c2ccccc2)CC1CN.Cl (stereo not given) [Milnacipran HCl] | 103
CCc1ccc(CCOc2ccc(CC3SC(=O)NC3=O)cc2)nc1 (stereo not given) [Pioglitazone] | 101
Cl.Fc1ccc(C2CCNCC2COc2ccc3c(c2)OCO3)cc1 (stereo not given) [Paroxetine HCl] | 46.5
CCOC(=O)c1ccc(OC(=O)CCCCCN=C(N)N)cc1.CS(=O)(=O)O [Gabexate mesylate] | 81
COC1=CC(=O)C[C@@H](C)[C@]12Oc1c(Cl)c(OC)cc(OC)c1C2=O [Griseofulvin] | 66.9
COc1ccc(-c2ccc3cc(C(=O)O)ccc3c2)cc1C12CC3CC(CC(C3)C1)C2 [Adapalene sodium salt] | 94
Br.COc1ccc2c3c1O[C@H]1C[C@@H](O)C=C[C@@]31CCN(C)C2 [Galanthamine HBr] | 89.4
Cc1cnc(C(=O)O)c[n+]1[O-] [Acipimox] | 104
CC1(COc2ccc3c(c2)ncn3-c2ccc3cccc(N4CCC(N)CC4)c3n2)COC1 | 26.6
Cc1cc(C)cc(OCC2CNC(=O)O2)c1 (stereo not given) [Metaxalone] | 90.6
CC12CCC(=O)C=C1CCC1C2C(O)CC2(C)C1CCC2(O)C(=O)CO (stereo not given) [Hydrocortisone] | 136
CC1=C(CC(=O)O)c2cc(F)ccc2C1=Cc1ccc(S(C)=O)cc1 (stereo not given) [Sulindac] | 72.2
CCC1OC(=O)C(C)C(OC2CC(C)(OC)C(O)C(C)O2)C(C)C(OC2OC(C)CC(N(C)C)C2O)C(C)(OC)CC(C)C(=O)C(C)C(O)C1(C)O (stereo not given) [Clarithromycin] | 94.7
CCOc1cc2ncc(C#N)c(Nc3ccc(OCc4ccccn4)c(Cl)c3)c2cc1NC(=O)C=CCN(C)C [Neratinib (HKI-272)] | 42.2
